From ChEMBL document CHEMBL3745712, “Identification of N-(4-((1R,3S,5S)-3-Amino-5-methylcyclohexyl)pyridin-3-yl)-6-(2,6-difluorophenyl)-5-fluoropicolinamide (PIM447), a Potent and Selective Proviral Insertion Site of Moloney Murine Leukemia (PIM) 1, 2, and 3 Kinase Inhibitor in Clinical Trials for Hematological Malignancies” (J Med Chem, 2015)
In brackets after ≈: the same amount, converted by molar mass.

Legend:
in vitro [1] = conditions: human, microsomes
in vitro [2] = conditions: rat, microsomes
in vitro [3] = conditions: rat, microsomes; remark: listed apart in the source
cells = assay type: cell-based, KMS11; conditions: Homo sapiens, KMS-11, 1 h
[4] = target: Serine/threonine-protein kinase pim-3 (Homo sapiens, UniProt Q86V86)
[5] = target: Serine/threonine-protein kinase pim-1 (Homo sapiens, UniProt P11309)
in vitro [6] = conditions: human, microsomes; remark: listed apart in the source
[7] = target: Phosphatidylinositol 4-kinase beta (Homo sapiens, UniProt Q9UBF8)
[8] = target: Serine/threonine-protein kinase N1 (Homo sapiens, UniProt Q16512)
[9] = target: Serine/threonine-protein kinase mTOR (Homo sapiens, UniProt P42345)
[10] = target: Protein kinase C theta type (Homo sapiens, UniProt Q04759)
in vivo [11] = conditions: rat, po
[12] = target: Phosphatidylinositol 4,5-bisphosphate 3-kinase catalytic subunit beta isoform (Homo sapiens, UniProt P42338)
physchem [13] = conditions: octanol/water, pH 6.8
in vivo [14] = conditions: rat
[15] = target: Voltage-gated inwardly rectifying potassium channel KCNH2 (Homo sapiens, UniProt Q12809)
in vivo [16] = conditions: mouse, po
in vivo [17] = conditions: mouse, po; remark: listed apart in the source
in vitro [18] = conditions: human, plasma
[19] = target: Glycogen synthase kinase-3 beta (Homo sapiens, UniProt P49841)
in vivo [20] = conditions: dog, po
[21] = target: T1, Phosphatidylinositol 4,5-bisphosphate 3-kinase catalytic subunit delta isoform (Homo sapiens, UniProt O00329)
T1 sequence (O00329 whole entry): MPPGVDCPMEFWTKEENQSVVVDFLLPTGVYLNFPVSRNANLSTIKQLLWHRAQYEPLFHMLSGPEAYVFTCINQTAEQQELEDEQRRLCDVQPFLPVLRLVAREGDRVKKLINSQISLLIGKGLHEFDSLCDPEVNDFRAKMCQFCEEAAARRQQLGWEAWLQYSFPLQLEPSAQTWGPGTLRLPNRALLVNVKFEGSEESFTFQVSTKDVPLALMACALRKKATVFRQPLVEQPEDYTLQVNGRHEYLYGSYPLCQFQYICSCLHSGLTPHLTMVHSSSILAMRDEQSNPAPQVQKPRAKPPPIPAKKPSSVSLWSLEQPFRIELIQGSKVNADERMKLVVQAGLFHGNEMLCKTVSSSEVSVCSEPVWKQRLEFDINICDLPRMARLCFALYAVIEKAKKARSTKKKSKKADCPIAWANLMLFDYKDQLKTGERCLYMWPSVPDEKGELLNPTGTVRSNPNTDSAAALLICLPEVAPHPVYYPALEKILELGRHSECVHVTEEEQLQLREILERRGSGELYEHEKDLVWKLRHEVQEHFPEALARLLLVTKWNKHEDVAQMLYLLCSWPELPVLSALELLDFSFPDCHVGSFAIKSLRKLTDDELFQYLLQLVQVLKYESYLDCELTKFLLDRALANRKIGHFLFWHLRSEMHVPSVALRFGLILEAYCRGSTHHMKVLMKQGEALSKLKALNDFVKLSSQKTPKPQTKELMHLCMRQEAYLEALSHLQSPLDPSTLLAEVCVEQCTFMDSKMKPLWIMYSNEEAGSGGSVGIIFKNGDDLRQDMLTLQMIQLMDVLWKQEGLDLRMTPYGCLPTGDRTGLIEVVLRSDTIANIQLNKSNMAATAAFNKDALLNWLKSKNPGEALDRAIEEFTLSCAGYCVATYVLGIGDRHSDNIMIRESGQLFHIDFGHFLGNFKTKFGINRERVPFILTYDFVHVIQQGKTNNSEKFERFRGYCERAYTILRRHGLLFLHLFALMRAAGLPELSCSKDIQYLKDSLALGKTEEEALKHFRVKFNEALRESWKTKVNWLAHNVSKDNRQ

in vivo [22] = conditions: dog
physchem [23] = conditions: buffer, pH 1
physchem [24] = experiment: physchem
[25] = target: Phosphatidylinositol 4,5-bisphosphate 3-kinase catalytic subunit alpha isoform (Homo sapiens, UniProt P42336)
[26] = target: Phosphatidylinositol 3-kinase catalytic subunit type 3 (Homo sapiens, UniProt Q8NEB9)
[27] = target: Phosphatidylinositol 4,5-bisphosphate 3-kinase catalytic subunit gamma isoform (Homo sapiens, UniProt P48736)
physchem [28] = conditions: buffer, pH 3
physchem [29] = conditions: buffer, pH 6.8
in vivo [30] = conditions: mouse

Chain of Phosphatidylinositol 4,5-bisphosphate 3-kinase catalytic subunit gamma isoform (P48736 whole entry, canonical isoform): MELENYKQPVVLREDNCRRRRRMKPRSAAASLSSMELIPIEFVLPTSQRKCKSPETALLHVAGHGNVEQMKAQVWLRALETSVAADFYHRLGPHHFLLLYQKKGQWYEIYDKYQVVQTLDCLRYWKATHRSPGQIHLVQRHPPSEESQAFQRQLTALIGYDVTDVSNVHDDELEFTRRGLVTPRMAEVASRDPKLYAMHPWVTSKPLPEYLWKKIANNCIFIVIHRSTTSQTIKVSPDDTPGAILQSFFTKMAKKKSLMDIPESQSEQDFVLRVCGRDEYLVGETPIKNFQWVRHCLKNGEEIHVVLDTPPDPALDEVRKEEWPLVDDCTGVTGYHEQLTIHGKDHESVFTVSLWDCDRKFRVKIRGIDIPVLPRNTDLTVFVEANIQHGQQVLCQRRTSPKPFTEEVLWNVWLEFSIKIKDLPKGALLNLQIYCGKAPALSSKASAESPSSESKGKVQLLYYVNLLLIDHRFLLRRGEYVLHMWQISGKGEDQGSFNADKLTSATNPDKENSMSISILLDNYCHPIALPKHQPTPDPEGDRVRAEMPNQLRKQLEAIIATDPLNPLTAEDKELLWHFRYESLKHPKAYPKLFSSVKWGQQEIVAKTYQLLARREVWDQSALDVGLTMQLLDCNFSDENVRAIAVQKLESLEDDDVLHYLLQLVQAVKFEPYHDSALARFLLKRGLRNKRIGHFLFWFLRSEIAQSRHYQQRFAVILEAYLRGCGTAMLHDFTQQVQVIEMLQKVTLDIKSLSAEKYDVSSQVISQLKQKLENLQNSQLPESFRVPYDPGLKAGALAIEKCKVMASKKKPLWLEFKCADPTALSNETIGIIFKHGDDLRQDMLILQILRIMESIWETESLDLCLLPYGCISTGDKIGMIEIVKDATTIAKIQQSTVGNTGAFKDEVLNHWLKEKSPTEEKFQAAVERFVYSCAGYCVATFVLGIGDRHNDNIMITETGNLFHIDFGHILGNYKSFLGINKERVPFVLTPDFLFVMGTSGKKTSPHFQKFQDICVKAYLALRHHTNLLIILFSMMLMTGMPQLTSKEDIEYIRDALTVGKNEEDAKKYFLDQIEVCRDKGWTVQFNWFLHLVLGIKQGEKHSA
Chain of Phosphatidylinositol 4,5-bisphosphate 3-kinase catalytic subunit beta isoform (P42338 whole entry, canonical isoform): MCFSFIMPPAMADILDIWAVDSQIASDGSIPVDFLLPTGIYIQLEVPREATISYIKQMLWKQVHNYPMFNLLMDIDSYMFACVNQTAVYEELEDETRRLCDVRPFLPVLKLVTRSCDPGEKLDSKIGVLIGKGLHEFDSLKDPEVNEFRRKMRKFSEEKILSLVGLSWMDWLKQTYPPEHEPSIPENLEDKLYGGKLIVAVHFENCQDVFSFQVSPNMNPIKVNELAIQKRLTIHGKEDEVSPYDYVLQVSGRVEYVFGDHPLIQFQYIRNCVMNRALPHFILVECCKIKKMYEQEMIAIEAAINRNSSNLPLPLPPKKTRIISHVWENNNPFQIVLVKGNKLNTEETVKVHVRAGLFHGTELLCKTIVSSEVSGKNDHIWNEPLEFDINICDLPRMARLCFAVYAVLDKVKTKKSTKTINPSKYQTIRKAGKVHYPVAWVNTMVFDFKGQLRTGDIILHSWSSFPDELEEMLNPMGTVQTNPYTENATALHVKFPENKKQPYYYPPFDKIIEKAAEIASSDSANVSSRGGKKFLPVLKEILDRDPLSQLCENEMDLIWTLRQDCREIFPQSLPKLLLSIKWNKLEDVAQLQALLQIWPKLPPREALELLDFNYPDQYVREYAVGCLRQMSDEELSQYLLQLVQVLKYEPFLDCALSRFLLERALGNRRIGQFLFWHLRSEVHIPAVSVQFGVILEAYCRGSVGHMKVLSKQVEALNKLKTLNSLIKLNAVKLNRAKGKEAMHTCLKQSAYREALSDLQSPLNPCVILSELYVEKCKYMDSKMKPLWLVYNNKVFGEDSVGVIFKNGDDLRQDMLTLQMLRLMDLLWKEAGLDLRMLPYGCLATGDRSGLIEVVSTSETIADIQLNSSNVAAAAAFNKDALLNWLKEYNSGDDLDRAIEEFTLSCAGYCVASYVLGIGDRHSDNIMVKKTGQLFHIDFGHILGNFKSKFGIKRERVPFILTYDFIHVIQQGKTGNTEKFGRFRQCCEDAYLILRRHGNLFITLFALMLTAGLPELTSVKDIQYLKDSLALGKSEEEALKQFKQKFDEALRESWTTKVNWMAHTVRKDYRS
Chain of Phosphatidylinositol 4-kinase beta (Q9UBF8 whole entry): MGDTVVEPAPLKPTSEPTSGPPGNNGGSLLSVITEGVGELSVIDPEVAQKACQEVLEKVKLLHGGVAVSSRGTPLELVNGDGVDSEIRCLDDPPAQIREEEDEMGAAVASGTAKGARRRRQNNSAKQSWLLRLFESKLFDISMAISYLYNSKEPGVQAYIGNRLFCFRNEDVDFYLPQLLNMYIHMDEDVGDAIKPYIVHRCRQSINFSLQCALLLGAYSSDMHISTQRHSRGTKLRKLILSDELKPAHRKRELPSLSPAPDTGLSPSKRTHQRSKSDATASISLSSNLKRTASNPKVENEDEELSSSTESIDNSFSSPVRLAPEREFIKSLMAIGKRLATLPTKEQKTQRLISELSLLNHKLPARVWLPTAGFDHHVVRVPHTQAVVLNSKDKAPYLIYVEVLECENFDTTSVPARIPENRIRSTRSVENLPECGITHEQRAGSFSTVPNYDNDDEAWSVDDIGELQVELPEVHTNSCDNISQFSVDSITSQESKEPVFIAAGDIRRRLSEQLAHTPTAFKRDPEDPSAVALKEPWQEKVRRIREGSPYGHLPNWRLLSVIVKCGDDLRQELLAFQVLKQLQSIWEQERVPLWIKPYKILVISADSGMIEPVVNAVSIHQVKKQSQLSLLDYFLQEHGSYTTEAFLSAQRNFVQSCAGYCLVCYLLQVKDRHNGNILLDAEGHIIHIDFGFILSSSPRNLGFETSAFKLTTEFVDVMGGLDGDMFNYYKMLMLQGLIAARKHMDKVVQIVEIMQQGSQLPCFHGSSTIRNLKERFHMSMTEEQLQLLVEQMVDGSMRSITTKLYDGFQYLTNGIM
Chain of Phosphatidylinositol 4,5-bisphosphate 3-kinase catalytic subunit alpha isoform (P42336 whole entry, canonical isoform): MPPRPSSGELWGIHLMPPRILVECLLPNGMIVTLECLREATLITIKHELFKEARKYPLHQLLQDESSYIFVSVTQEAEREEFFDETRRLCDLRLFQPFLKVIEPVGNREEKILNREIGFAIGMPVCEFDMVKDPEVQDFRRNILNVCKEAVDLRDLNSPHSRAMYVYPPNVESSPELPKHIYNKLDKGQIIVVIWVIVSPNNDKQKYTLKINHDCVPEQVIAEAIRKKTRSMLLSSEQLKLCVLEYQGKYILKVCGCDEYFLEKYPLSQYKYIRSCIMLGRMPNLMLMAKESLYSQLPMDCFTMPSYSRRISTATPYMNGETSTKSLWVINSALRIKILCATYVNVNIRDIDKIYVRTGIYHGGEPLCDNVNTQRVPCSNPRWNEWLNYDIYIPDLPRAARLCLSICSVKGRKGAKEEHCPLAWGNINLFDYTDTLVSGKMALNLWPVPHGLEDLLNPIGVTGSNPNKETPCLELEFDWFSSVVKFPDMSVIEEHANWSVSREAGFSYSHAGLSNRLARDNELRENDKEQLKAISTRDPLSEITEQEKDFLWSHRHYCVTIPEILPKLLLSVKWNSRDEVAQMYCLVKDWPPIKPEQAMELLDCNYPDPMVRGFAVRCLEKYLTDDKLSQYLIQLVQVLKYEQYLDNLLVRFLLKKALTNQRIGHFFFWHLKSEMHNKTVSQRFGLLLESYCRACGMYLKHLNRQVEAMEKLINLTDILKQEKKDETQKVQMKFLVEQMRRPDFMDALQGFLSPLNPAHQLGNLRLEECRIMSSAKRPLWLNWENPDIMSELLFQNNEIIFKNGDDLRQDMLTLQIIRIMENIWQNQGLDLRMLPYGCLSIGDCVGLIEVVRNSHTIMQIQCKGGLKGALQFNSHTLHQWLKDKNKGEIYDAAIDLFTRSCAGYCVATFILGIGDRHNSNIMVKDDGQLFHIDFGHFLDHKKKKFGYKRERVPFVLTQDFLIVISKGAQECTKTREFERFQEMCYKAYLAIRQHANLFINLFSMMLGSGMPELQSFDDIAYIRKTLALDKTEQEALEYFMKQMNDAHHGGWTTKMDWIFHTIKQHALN
Chain of Serine/threonine-protein kinase N1 (Q16512 whole entry): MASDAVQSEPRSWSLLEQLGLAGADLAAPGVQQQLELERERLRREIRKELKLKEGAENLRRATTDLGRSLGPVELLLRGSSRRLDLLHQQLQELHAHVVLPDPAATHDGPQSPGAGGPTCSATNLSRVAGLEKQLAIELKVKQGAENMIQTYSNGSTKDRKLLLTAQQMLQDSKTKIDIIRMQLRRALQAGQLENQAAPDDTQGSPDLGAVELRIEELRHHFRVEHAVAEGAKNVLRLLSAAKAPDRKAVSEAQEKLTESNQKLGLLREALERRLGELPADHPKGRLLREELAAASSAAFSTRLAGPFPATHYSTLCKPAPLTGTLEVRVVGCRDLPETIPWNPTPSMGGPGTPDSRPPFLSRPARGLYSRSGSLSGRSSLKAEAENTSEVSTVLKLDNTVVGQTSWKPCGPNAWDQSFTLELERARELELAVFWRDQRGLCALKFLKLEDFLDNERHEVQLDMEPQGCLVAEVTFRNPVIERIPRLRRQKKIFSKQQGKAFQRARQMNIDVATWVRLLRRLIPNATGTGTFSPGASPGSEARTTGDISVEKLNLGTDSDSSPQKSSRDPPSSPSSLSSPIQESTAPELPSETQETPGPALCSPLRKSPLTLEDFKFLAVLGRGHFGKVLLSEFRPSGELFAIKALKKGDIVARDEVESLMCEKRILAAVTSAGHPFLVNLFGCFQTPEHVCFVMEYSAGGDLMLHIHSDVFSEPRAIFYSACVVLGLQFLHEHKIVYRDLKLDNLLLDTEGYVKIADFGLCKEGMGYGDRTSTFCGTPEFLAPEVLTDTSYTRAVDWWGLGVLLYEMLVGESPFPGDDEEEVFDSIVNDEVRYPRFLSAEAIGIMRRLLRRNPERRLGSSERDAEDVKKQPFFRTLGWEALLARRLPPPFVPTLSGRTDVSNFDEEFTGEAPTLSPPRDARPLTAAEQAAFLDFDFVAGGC

C[C@H]1C[C@@H](c2ccncc2NC(=O)c2ccc(F)c(-c3c(F)cccc3F)n2)C[C@@H](N)[C@@H]1O
CLhep predicted at 0.5 h, 1 µM (in vitro [1]): 10 mL/min/kg | CLhep predicted at 0.5 h, 1 µM (in vitro [2]): 20 mL/min/kg | half-life at 0.5 h, 1 µM (in vitro [3]): 1.53 h | EC50 (cells): 0.91 µM

N[C@H]1CCC[C@@H](c2ccncc2NC(=O)c2ccc(F)c(-c3c(F)cccc3F)n2)C1
CLhep predicted at 0.5 h, 1 µM (in vitro [1]): 9 mL/min/kg | Ki [4]: < 0.003 µM | CLhep predicted at 0.5 h, 1 µM (in vitro [2]): 30 mL/min/kg | Ki [5]: < 0.001 µM | half-life at 0.5 h, 1 µM (in vitro [6]): 1.78 h | half-life at 0.5 h, 1 µM (in vitro [3]): 0.7 h

C[C@@H]1C[C@H](N)C[C@H](c2ccncc2NC(=O)c2ccc(F)c(-c3c(F)cccc3F)n2)C1 [LGH-447]
IC50 [7]: > 9.1 µM | IC50 [8]: 4.9 µM | IC50 [9]: > 9.1 µM | IC50 [10]: 4.1 µM | bioavailability (in vivo [11]): 70% | IC50 [12]: > 9.1 µM | logD (physchem [13]): 1.1 | Vd (in vivo [14]): 6.4 L/kg | IC50 [15]: 12 µM | fraction unbound at 24 h (in vivo [16]): 0.05 | bioavailability (in vivo [17]): 84% | fraction unbound (in vitro [18]): 0.05 | IC50 [19]: 1.3 µM | bioavailability (in vivo [20]): 71% | IC50 [21]: > 9.1 µM | Vd (in vivo [22]): 3.6 L/kg | solubility (physchem [23]): > 45 mM | pKa (physchem [24]): 4.2 | IC50 [25]: > 9.1 µM | IC50 [26]: > 9.1 µM | IC50 [27]: > 9.1 µM | solubility (physchem [28]): 4 mM (≈ 1760 µg/mL) | solubility (physchem [29]): 0.5 mM (≈ 220 µg/mL) | Vd (in vivo [30]): 5.3 L/kg
